Out of some 44,000 compounds screened, about 340 (0.77%) were called active. About 5% were inconclusive and are not listed. Calls come from the whole dose curve; as a rule, active = well fitted inhibition curve with a large enough effect; inconclusive = small, poorly fitted or top-dose-only effect; inactive = flat fitted curve, though single readings scatter. This is one part of the list.
Assay: Acumen qHTS Assay for Inhibitors of the mTORC1 Signaling Pathway in MEF (Tsc2-/-, p53-/-) Cells: Sytravon;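 note: plate controls were DMSO for no effect and rapamycin for full effect; nearly all actives have a fitted effect of over 50% in size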
Conditions: phospho-rpS6 immunofluorescence/PI, 24 h; series mostly up to 38.3 µM; activity change, negative = inhibition: at the top concentration
Outline: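 Compounds act on Tsc2-/-, p53-/- fibroblasts carrying an empty vector for 24 h before fixation and dual staining for phospho-S6 and DNA (propidium iodide). Values are percentages of cells above a rapamycin-defined pS6/PI threshold.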

Activity change, negative = inhibition, inactive:
COc1ccc(NC(=O)C2=C(C)Nc3c(C(=O)Nc4ccc(C)cc4)cnn3C2c2cc(OC)ccc2OC)cc1 (stereo not given) 1.4%, COc1cccc(NC(=O)Cn2c(=O)n(Cc3ccccc3)c(=O)c3c2c2cc(C)ccc2n3C)c1 -3.67%, CN(C)c1ccc(C2CC(c3c(O)n(C4CCCCC4)c(=O)[nH]c3=O)=Nc3ccccc3S2)cc1 (stereo not given) 6.08%, CCCN1CCc2nc(SCC(=O)Nc3ccc(C)c(Cl)c3)[nH]c(=O)c2C1 5.35%, CCOc1ccc(C(=O)N2CCC(c3nc(-c4ccc(S(=O)(=O)N5CCCC5)cc4)no3)CC2)cc1 3.36%, c1ccc(CSc2nnc(C3CCNCC3)o2)cc1 -0.4%, COC(=O)c1ccc(NC(=O)CCn2cccn2)cc1 0.0221%, O=c1[nH]c2ccc(NCc3ccc(-c4ccccc4F)o3)cc2[nH]1 -20.1%, Cc1ccc(C(C)C)c(OCC(=O)Nc2cccc(-c3nc4ncccc4o3)c2)c1 0.038%, CCOc1ccc(NC(=O)N(Cc2ccc(CC)cc2)Cc2cn[nH]c2-c2ccc(OC)cc2)cc1 0.827%, COc1cccc(Oc2nc3c(c(=O)n(Cc4ccccc4Cl)c(=O)n3C)n2C)c1 5.51%, CCOc1ccc(-c2cc3c(=O)n(Cc4nc(-c5ccc(OC)cc5OC)oc4C)ccn3n2)cc1Cl 3.84%, COc1ccccc1NC(=O)c1nnn(-c2ccc(F)cc2)c1C -0.473%, Cc1cc(F)ccc1NC(=O)C(C(C)C)N1Cc2ccccc2C1=O (stereo not given) 0.525%, COc1ccc(CNC(=O)c2ccc3c(c2)N(Cc2ccccc2)C(=O)c2ccccc2S3=O)cc1 (stereo not given) 0.296%, CCc1ccccc1OCCSc1nc(-c2cccs2)nc2cc(=O)[nH]n12 2.4%, CC(=O)Nc1ccc(S(=O)(=O)NC2=NCN(C(C)C)CN2)cc1 7.63%, COc1ccc(C(=O)N2CC(=O)Nc3ccc(C)cc3C2c2ccc(F)cc2)c(OC)c1 (stereo not given) 7.93%, CN(CC(=O)NCc1ccccc1Cl)S(=O)(=O)c1ccc2c(c1)c(=O)n(C)c(=O)n2C -4.91%, Cc1ccc(Cl)cc1N1CCN(C(=O)Cc2c(C(=O)O)c(C)cn2C)CC1 -1.3%, Cc1sc2ncn(CC(=O)N3CCN(c4ccccc4F)CC3)c(=O)c2c1S(=O)(=O)N1CCN(c2ncccn2)CC1 -5.49%, O=c1c(-c2cc(-c3ccc(Cl)cc3)nc3c2COc2ccccc2-3)coc2ccccc12 4.68%, CCC(=O)N1CCc2cc(Br)cc(S(=O)(=O)CCC(=O)NCCc3ccc(C)cc3)c21 -7.88%, COc1ccc(S(=O)(=O)Nc2cccc(-c3ccc(N4CCCCCC4)nn3)c2)cc1F 0.265%, CCc1ccc(CNC(=O)c2cnc(N3CCCCC3)c3ccccc23)cc1 -1.86%, COc1ccc(CCNC(=O)C(=O)Nc2ccc(C)c(C)c2)cc1 -0.282%, O=C(CN1C(=O)CC(c2ccco2)Sc2ccccc21)Nc1cccc(C(F)(F)F)c1 (stereo not given) -10.4%, CC1CCN(S(=O)(=O)c2cc(C(=O)NCc3ccc(N(C)C)cc3)n(C)c2)CC1 -9.59%, CC(C)c1ccc(S(=O)(=O)c2cn(CC(=O)Nc3ccc(F)cc3)c3ccccc3c2=O)cc1 -3.7%, O=C(CSc1nc2c(c(=O)[nH]1)CCCC2)Nc1ccccc1C(F)(F)F -0.145%, CCc1ccccc1NC(=O)Cn1c(=O)n(Cc2ccccc2)c(=O)c2c(C)c(C(=O)N(C)C)sc21 1.76%, Cc1csc2nc(-c3cccc(NS(C)(=O)=O)c3)cn12 -1.1%, Cc1ccccc1CN1c2ccccc2-c2nc(SCC(=O)c3ccc(Cl)cc3)ncc2S1(=O)=O 4.96%, COCCCNC(=O)CCCN1C(=O)CCn2nc(-c3cccn3C)cc21 -5.96%, Cc1ccc(-c2nc(C)c(CCNC(=O)C(=O)Nc3cc(C)ccc3C)s2)cc1 -2.74%, Cc1csc2nc(-c3ccc(NS(=O)(=O)c4cccc(F)c4)cc3)cn12 11.3%, Cc1ccccc1CNC(=O)c1ccc(NC(=O)N2CCCCc3ccccc32)cc1 -0.819%, Cc1c(CN(C)C(=O)c2cc(-c3ccccc3)nc3ccc(Br)cc23)cnn1C 4.83%, Cc1oc2ccc(NS(=O)(=O)c3ccc(F)cc3)cc2c1C(=O)O 3.37%, CCCOc1ccc(C2=NC(c3ccncc3)=Nc3ccc(C)cc3N2)cc1 -10.5%, Cc1ccc(-c2n[nH]c3c2C(c2ccccc2Cl)N(c2ccc(C(=O)O)cc2)C3=O)cc1 (stereo not given) 0.434%, Cc1ccc(S(=O)(=O)c2c(Nc3ccc(C)c(C)c3)sc(C(=O)c3ccc4c(c3)OCO4)c2N)cc1 0.203%, CSc1ncc(Cl)c(C(=O)Nc2c(C(=O)Nc3cccc(C)c3)oc3ccccc23)n1 3.97%, Cc1ccccc1-c1noc(-c2ccc(N3CCC(C)CC3)c([N+](=O)[O-])c2)n1 3.3%, O=C(CN1CCN(Cc2ccc(F)cc2Cl)C1=O)NCCc1ccc(Cl)cc1 1.53%, CC(C)c1nc2ccc(C(=O)NCCCN3CCN(c4ccccc4)CC3)cc2o1 0.187%, O=C1CN(C(=O)c2ccc(S(=O)(=O)N3CCCC3)cc2)C(c2ccccc2)c2cc(Cl)ccc2N1 (stereo not given) 4.8%, COc1ccc(OC)c(NC(=O)N2CC(C)Oc3ccc(C)cc32)c1 (stereo not given) -0.18%, Cc1ccc(C(=O)c2cn(CC(=O)NCc3ccccc3)c3nc(C)ccc3c2=O)cc1 5.61%, Cc1ccc(O)c(Nc2nc3ccccc3c3nncn23)c1 -15.9%, Cc1cc(C)n(CC(=O)Nc2cc(F)ccc2F)c(=O)c1C#N 4.1%, COc1ccc(Cl)cc1NC(=O)CSc1nnc2[nH]c(=O)cc(C)n12 0.943%, CCOc1ccc(-c2nc(C(N)=O)c3c(n2)n(-c2ccc4c(c2)OCO4)c(=O)n3CC)cc1 -8.98%, CC1=C(C(N)=O)C(c2ccccc2F)n2nc(-c3ccc(Cl)cc3)nc2N1 (stereo not given) 1.97%, COC(=O)c1cc(S(=O)(=O)N2CCN(c3cc(Cl)ccc3C)CC2)c[nH]1 -0.983%, O=S(=O)(NCC(c1ccco1)N1CCOCC1)c1ccc(F)cc1 (stereo not given) 0.984%, Cc1cc(C)c2oc(C(=O)Nc3c(C(=O)c4ccccc4)oc4ccccc34)cc(=O)c2c1 4.47%, Cc1ccc(CNC(=O)Cn2cc3c(n2)-c2c(oc(C(=O)N4CCOCC4)c2C)CC3)cc1 -5.86%, COc1ccccc1CNc1ncnc2c1c(-c1ccccc1)cn2-c1ccc(Br)cc1 5.72%, COc1cc2c(=O)c(C(=O)c3ccc(F)cc3)cn(Cc3cccc(F)c3)c2cc1OC -14.5%

From PubChem BioAssay AID493208 (National Center for Advancing Translational Sciences (NCATS), 2011)
